About 450 (0.94%) of roughly 48,000 compounds were called active. Another 19% or so got no clear call; they are omitted. Calls come from the whole dose curve; as a rule, active = well fitted inhibition curve with a large enough effect; inconclusive = small, poorly fitted or top-dose-only effect; inactive = no such curve, though single readings can be large or run the other way. The list shows a part of the results.
Test: Primary qHTS for Identification of Small Molecule Inhibitors of Huntingtin Promoter Activity; note: nearly all actives have a fitted effect of over 50% in size
Conditions: HEK293 HTT promoter firefly luciferase reporter (activity 0% = vehicle and -100% = no light), 24 h; series mostly up to 57.5 µM; activity change, negative = inhibition: at the top concentration
Procedure, shortened: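 Firefly luciferase signal from promoter-reporter HEK293 cells was scaled between vehicle (0%) and zero RLU (-100%). Compounds were tested at final concentrations of up to 57.5 uM over 24 h at 37 degrees C. PTC124 at 50 uM final served as control inhibitor.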

SMILES	activity change, negative = inhibition
CCOC(=O)c1c(C)[nH]c(CCC(=O)Nc2c(Cl)cc(OC)cc2OC)c1C	inactive: -22.4%
CCCc1nc2nc(C)c(NS(=O)(=O)c3ccc(F)cc3)c(=O)n2[nH]1	inactive: -15.1%
Cc1cc(C(=O)N2CCN(c3ccc(F)cc3)CC2)c2c(C)nn(-c3cccc(Cl)c3C)c2n1	inactive: -13.2%
COc1ccc(CNC(=O)Cn2c(=O)nc(-c3ccccc3F)c3cc(Cl)ccc32)cc1OC	inactive: -16.6%
COC(=O)c1cccc(Nc2c(-c3ccc(OC)cc3)nc3nc[nH]n23)c1	inactive: 25.6%
Cc1ccc(C)c(NC(=O)Cn2nnc(C(=O)NCCc3ccccc3)c2N)c1	inactive: -19.8%
CCOC(=O)c1ccc(NC(=O)C(CC)Sc2nnc3c4ccccc4n(C)c3n2)cc1 (configuration not stated)	inactive: -3.81%
Cc1cc(C)c(NC(=O)Cn2c(=O)n(Cc3ccc4c(c3)OCO4)c(=O)c3ccccc32)c(C)c1	inactive: -4.79%
CCOc1ccccc1CNC(=O)c1cn(-c2ccc(OC)cc2)c(=O)c2ccccc12	inactive: -17.4%
CCOc1ccc(NC(C)=O)cc1	inactive: -5.39%
COc1cccc(CNC(=O)CSc2n[nH]c(-c3ccccc3Cl)n2)c1OC	inactive: -15%
Cc1cccc(NC(=O)CSc2nc(=O)n(Cc3ccco3)c3c2CCC3)c1C	inactive: -12%
CN1CCC[C@@H]1CCO[C@](C)(c1ccccc1)c1ccc(Cl)cc1	inactive: -6.45%
O=c1c(N2CCN(c3cccc(Cl)c3)CC2)csc2ccccc12	inactive: -23.9%
Cc1cc(C)cc(NC(=O)C(=O)NCCCN2CCOCC2)c1	inactive: -1.66%
Cc1ccc2cc3cc(C(=O)N4CCN(c5ccccc5)CC4)oc3nc2c1	inactive: -9.19%
CCOc1ccc(CN(C(=O)c2nc(SC)ncc2Cl)C2CCS(=O)(=O)C2)cc1 (configuration not stated)	inactive: -4.63%
O=C(Nc1nc2ccc(S(=O)(=O)N3CCCC3)cc2s1)c1ccc(F)cc1	inactive: -29.3%
CC1CCCCN1CCCNC(=O)c1ccc2c(c1)sc1nc(-c3ccc(F)cc3)cn12 (configuration not stated)	inactive: 1.41%
CCOC(=O)c1noc2ncnc(N3CCN(c4cccc(Cl)c4)CC3)c12	inactive: -26.5%
COc1ccc(-c2nc3nc(C)cc(N4CCN(c5cccc(C(F)(F)F)c5)CC4)n3n2)cc1	inactive: -8.35%
Cc1cc(C)cc(NC(=O)Cn2nnc(C(=O)NCc3ccccc3Cl)c2N)c1	inactive: -28%
COc1ccc(CCNC(=O)c2cc3c(s2)-c2c(C)cccc2OC3)c(OC)c1	inactive: -26.8%
CCOc1ccc(C(=O)Nc2ccccc2C(=O)OCc2cc(=O)n3nc(C4CC4)sc3n2)cc1	inactive: 7.35%

SMILES	activity change, negative = inhibition
Cc1cccc2c1-c1sc(C(=O)NCc3ccc(Cl)cc3)cc1CO2	inactive: 2.24%
Cc1ccc(-c2nc(S(=O)(=O)c3ccc(C)cc3)c(SCC(=O)Nc3ccc(F)cc3)o2)cc1	inactive: -17.7%
CCN(Cc1ccccc1)C(=O)c1cc2c(=O)oc3ccc(C)cc3c2s1	inactive: -7.66%
CCc1ccc(S(=O)(=O)c2nnn3c2nc(Nc2cc(OC)cc(OC)c2)c2cc(Cl)ccc23)cc1	inactive: 1.15%
COCCn1c(C)cc(O)c(C(c2ccc(Cl)cc2)N2CCN(c3ccccc3)CC2)c1=O (configuration not stated)	inactive: -5.03%
CN1C(C(=O)c2ccccc2)=C(NC(=O)c2ccccc2Br)c2ccccc2S1(=O)=O	inactive: 1.51%
COc1ccc(NC(=O)Nc2cccc(OCc3cc(=O)n4cccc(C)c4n3)c2)c(OC)c1	inactive: -6.91%
CCCCCSc1nnc2c(n1)OC(CC)Nc1ccc(Br)cc1-2 (configuration not stated)	inactive: -17%
Cc1nc2ccc(S(=O)(=O)NC(C(=O)N3CCN(c4ccc(Cl)cc4)CC3)C(C)C)cc2s1 (configuration not stated)	inactive: -22.7%
CCc1ccc(NC(=O)Cc2csc(COc3cccc(C)c3)n2)cc1	inactive: -24.5%
O=c1n(Cc2ccc(Cl)cc2)c2ccccc2c2nc(-c3ccccc3)nn12	inactive: -12.1%
O=S(=O)(c1ccc2[nH]c3c(c2c1)CCCC3)N1CCN(c2cccc(C(F)(F)F)c2)CC1	inactive: -12.6%
Cc1cc(C)cc(Nc2nc3ccccc3n3cnnc23)c1	inactive: -6.64%
COc1cc(C2N=C(N)Nc3nc4ccccc4n32)ccc1OCC(=O)O (configuration not stated)	inactive: 12.8%
COc1ccc(C(=O)NCC(c2ccc(N(C)C)cc2)N2CCCC2)cc1 (configuration not stated)	inactive: -13.3%
CC(=O)c1ccc(N2CCN(c3nc4c(S(=O)(=O)c5ccc(C)c(C)c5)nnn4c4ccc(Cl)cc34)CC2)cc1	inactive: -16%
Cc1cc(C)cc(-n2ccnc2SCC(=O)Nc2ccc(C)cc2C)c1	inactive: -9.33%
CCC(=O)N1CCc2cc(Br)cc(S(=O)(=O)CCC(=O)N3CCN(c4ccc(OC)cc4)CC3)c21	inactive: -5.91%
O=C(CCCn1c(=O)c2ccccc2n(CC(=O)Nc2cccc(Cl)c2)c1=O)NCc1ccc2c(c1)OCO2	inactive: -10.1%
CCOc1ccc2oc(=O)cc(CN3CCN(Cc4ccc(F)cc4)CC3)c2c1	inactive: -17.5%
CCC(C(=O)Nc1cc(OC)ccc1OC)n1c(=O)c(C(F)(F)F)nc2ccccc21 (configuration not stated)	inactive: -8.28%
CCC(=O)Nc1ccccc1-c1nc2ccccc2n(C(C)C(=O)Nc2cccc(Cl)c2C)c1=O (configuration not stated)	inactive: -20.3%
CC(C)c1ccc(Nc2ncnc3c2nc2n3CCCC2)cc1	inactive: -18.6%
